Assay results taken from PubChem BioAssay AID686979 (National Center for Advancing Translational Sciences (NCATS), 2013).
The campaign covered roughly 420,000 compounds. About 50,000 (12%) were called active. The inconclusive results got no clear call from the source; some entries with a clear call stand among them for comparison. Calls follow the shape of the dose curve; as a rule, active = well fitted inhibition curve with a large enough effect; inconclusive = small, poorly fitted or top-dose-only effect; inactive = flat fitted curve, though single readings scatter. No potency is given beside an inconclusive call; the fits are too rough.
% is scaled to controls: 0 for no effect and ±100 for the full control effect; potency is read from the fitted curve at half-maximal effect; tags tell the direction and shape of the fitted curve.

Assay: qHTS for Inhibitors of human tyrosyl-DNA phosphodiesterase 1 (TDP1): qHTS in cells in presence of CPT; also: nearly all actives have a fitted effect of over 55% in size
Conditions: chicken DT40 Tdp1-/-;hTDP1 cells + 20 nM CPT, ATP luminescence, 48 h; activity change, negative = growth inhibition: at 46.2 µM (top of the series) unless noted
Method in brief: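 Cell growth measured by CellTiter-Glo luminescence after a minimum 48 h, 37 C compound exposure with 20 nM CPT in Tdp1-knockout DT40 cells stably expressing hTDP1, seeded 400/well; qHTS titration format.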
With `Cc1ccccc1NC(=O)C1CCC(C)(C(=O)O)C1(C)C` (stereo unspecified) the Potency was “inactive”.
With `Cc1ccccc1NC(=O)c1ccc(Nc2c([N+](=O)[O-])cc([N+](=O)[O-])c3ccccc23)cc1` the Potency was inconclusive [inhibitor, single point].
For `O=C(CNCc1cccs1)Nc1cc(S(=O)(=O)N2CCCC2)ccc1Cl`, the activity change, negative = growth inhibition was inconclusive: -34.8% [inhibitor].
For `Cc1ccnc(NC(=O)CCC(=O)N(Cc2ccco2)C(C(=O)NC(C)C)c2ccc(F)cc2)c1` (stereo unspecified), the Potency was “inactive”.
In the case of `COc1ccc(-n2c(SCc3ccccc3)nc3c([nH]c4ccccc43)c2=O)cc1`, the Potency is reported as inconclusive [inhibitor, single point].
With `O=C(N/N=C/c1cccs1)c1ccc2ccccc2c1` the Potency was active: 14.6 µM.
For `CCn1c2ccccc2c2cc(CN3CCN(S(C)(=O)=O)CC3)ccc21`, the Potency was active: 14.6 µM.
For `Cc1c(Cl)cccc1NC(=O)C(C)n1c(=O)cc(C)c2c(C)nn(-c3ccccc3)c21` (stereo unspecified), the Potency was inconclusive [inhibitor, single point].
For `CC(C)c1ccc(C(O)c2nc3ccccc3n2C)cc1` (stereo unspecified), the Potency was active: 20.6 µM.
In the case of `CCOc1ccccc1OCCCC(=O)Nc1ccc(Cl)c(S(=O)(=O)N2CCOCC2)c1`, the Potency is reported as inconclusive [inhibitor, single point].
For `O=C1NC(CCc2ccccc2)C(=O)N1Cc1cccc2ccccc12` (stereo unspecified), the Potency was inconclusive [inhibitor, single point].
For `COc1ccc(OCC(=O)Nc2sc3c(c2C(=O)NCC2CCCO2)CCC3)cc1` (stereo unspecified), the Potency was inconclusive [inhibitor, single point].
For `COc1ccc2nc(SCC(=O)Nc3ccc4sc(C)nc4c3)c(C#N)cc2c1`, the Potency was active: 13 µM.
With `CC/C(=N/Nc1cccc(C)c1)c1cnnc(SC)n1` the Potency was inconclusive [inhibitor, single point].
For `COc1ccccc1-n1cnc(N)c1C(C)=O`, the Potency was “inactive”.
With `COc1ccc(C(O)c2ncc(-c3cccc(C(F)(F)F)c3)[nH]2)cc1F` (stereo unspecified) the Potency was active: 16.4 µM.
With `Cc1ccc(C(=O)N(Cc2nnc(-c3ccc(Cl)cc3)o2)C2CC2)o1` the Potency was inconclusive [inhibitor, single point].
With `Cc1cc(NC(=O)CCN2CCN(C)CC2)ccc1Br` the Potency was “inactive”.
For `Cn1cc(CNC(=O)c2cc(-c3ccccc3)nc3ccc(Br)cc23)cn1`, the Potency was “inactive”.
For `O=C(Nc1ccc(F)cc1)N(Cc1ccco1)Cc1cc2cc3c(cc2[nH]c1=O)OCO3`, the Potency was inconclusive [inhibitor, single point].
In the case of `COc1ccc(Cl)cc1NC(=O)CN(C)C(=O)c1ccc(-n2nc(C)cc2C)cc1`, the Potency is reported as active: 18.4 µM.
